Publication PMC10579561, “Real flue gas CO2 hydrogenation to formate by an enzymatic reactor using O2- and CO-tolerant hydrogenase and formate dehydrogenase” (Frontiers in Bioengineering and Biotechnology, 2023)

Substrate: NC(=O)c1ccc[n+]([C@@H]2O[C@H](COP(=O)(O)OP(=O)(O)OC[C@H]3O[C@@H](n4cnc5c(N)ncnc54)[C@H](O)[C@@H]3O)[C@@H](O)[C@H]2O)c1
Experiment: purified protein
Assay type: biochemical, Cupriavidus necator
Conditions: 50% H2, 50% N2 (no O2 or CO), 200 mM Kpi pH 6.5, NAD+ 0-4 mM, free enzyme

B1: ReSH (Cupriavidus necator H16) (protein)
chain: MDSRITTILERYRSDRTRLIDILWDVQHEYGHIPDAVLPQLGAGLKLSPLDIRETASFYHFFLDKPSGKYRIYLCNSVIAKINGYQAVREALERETGIRFGETDPNGMFGLFDTPCIGLSDQEPAMLIDKVVFTRLRPGKITDIIAQLKQGRSPAEIANPAGLPSQDIAYVDAMVESNVRTKGPVFFRGRTDLRSLLDQCLLLKPEQVIETIVDSRLRGRGGAGFSTGLKWRLCRDAESEQKYVICNADEGEPGTFKDRVLLTRAPKKVFVGMVIAAYAIGCRKGIVYLRGEYFYLKDYLERQLQELREDGLLGRAIGGRAGFDFDIRIQMGAGAYICGDESALIESCEGKRGTPRVKPPFPVQQGYLGKPTSVNNVETFAAVSRIMEEGADWFRAMGTPDSAGTRLLSVAGDCSKPGIYEVEWGVTLNEVLAMVGARDARAVQISGPSGECVSVAKDGERKLAYEDLSCNGAFTIFNCKRDLLEIVRDHMQFFVEESCGICVPCRAGNVDLHRKVEWVIAGKACQKDLDDMVSWGALVRRTSRCGLGATSPKPILTTLEKFPEIYQNKLVRHEGPLLPSFDLDTALGGYEKALKDLEEVTR
notes: five bands HoxF 68,110 Da, HoxH 54,863 Da, HoxU 26,173 Da, HoxY 22,881 Da, HoxI 18,567 Da; with NAD-reducing hydrogenase HoxS subunit gamma (diaphorase); NAD-reducing hydrogenase HoxS subunit delta; NAD-reducing hydrogenase HoxS subunit beta; NAD-reducing hydrogenase subunit HoxI
  Km: 1,179.4 ± 47.1 μM
  kcat: 55.2 ± 0.82 s⁻¹
  kcat/Km: 46800 ± 2000 M⁻¹ s⁻¹
